Measurements: PubChem BioAssay AID493208 (National Center for Advancing Translational Sciences (NCATS), 2011)
Screen size: about 44,000 compounds; about 340 (0.77%) were called active. Not shown: some 5% with an inconclusive outcome. The call rests on the fitted dose curve; in most records, active means well fitted inhibition curve with a large enough effect; inconclusive means small, poorly fitted or top-dose-only effect; inactive means flat fitted curve, though single readings scatter. The list shows a part of the results.

experiment: Acumen qHTS Assay for Inhibitors of the mTORC1 Signaling Pathway in MEF (Tsc2-/-, p53-/-) Cells: Sytravon; conditions: phospho-rpS6 immunofluorescence/PI, 24 h; series mostly up to 38.3 µM; activity change, negative = inhibition: at the top concentration;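 further: plate controls were DMSO for no effect and rapamycin for full effect; nearly all actives have a fitted effect of over 50% in size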
Method in brief: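 Immunofluorescence of rpS6 phosphorylation in Tsc2-/-, p53-/- MEFs after 24 h compound exposure, normalized to propidium iodide signal. Activity is expressed as % positive cells, thresholded with 7.5 nM rapamycin.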

Activity change, negative = inhibition, inactive:
COc1cc(OC)cc(C(=O)Nc2ccc(-c3nc4ccccc4s3)c(C)c2)c1 -2.38%, Cc1ccc(N2C(=O)CS(=O)(=O)C23C(=O)N(Cc2ccccc2C)c2ccccc23)cc1Cl (stereo not drawn) 1.88%, CN1CCN(C(=O)Cn2c(-c3cccs3)cc3ccccc32)CC1 -9.17%, Cc1nc2ccn(Cc3ccco3)c(=O)c2cc1C(=O)Nc1ccc(F)cc1 -0.287%, COc1ccc(NC(=O)Cn2nc(-c3ccccc3)c3cnc4ccc(C)cc4c32)cc1 -13.5%, Cc1ccc(OCC(=O)Nc2ccc3c(c2)sc(=O)n3C)cc1 2.41%, COc1ccc(-n2c(=O)[nH]c3cc(C(=O)NCCc4ccc(Cl)cc4)ccc3c2=O)cc1OC -13.5%, CCOC(=O)c1c(NC(=O)COc2ccc(CC)cc2)sc2c1CCCC2 -0.191%, Cc1ccc(-c2nc(C(=O)N3CCN(c4ccccc4)CC3)c3n2CCCCC3)cc1 4.44%, CCC(Sc1ncccc1C(=O)Oc1ccccc1Cl)C(=O)Nc1ccccc1OC (stereo not drawn) -1.21%, COc1ccc(NC(=O)C(NC(=O)C2CCC(C)CC2)C(C)C)cc1 (stereo not drawn) -1.76%, Cc1ccc2c(=O)c(C(=O)c3ccccc3)cn(CC(=O)Nc3ccc(C)c(Cl)c3)c2n1 6.13%, CCCNC(=O)c1ccc2c(c1)nc(C)n2-c1cccc(C)c1 -8.94%, Cc1nn(C)c2c1c(C(F)(F)F)cc(=O)n2C(C)C(=O)NCCC(C)C (stereo not drawn) 0%, Cc1ccc(-c2ccc(CCC(=O)O)n2-c2cccc(C)c2C)cc1 0.0644%, CCOc1ccc(Br)cc1S(=O)(=O)Nc1cccc(-c2ccc(OC)nn2)c1 -1.9%, Cc1ccc(C)c(N2CCN(C(=O)CN3C(=O)COc4ccc(S(=O)(=O)N5CCC(C)CC5)cc43)CC2)c1 1.17%, Cc1ccc(N2CCN(S(=O)(=O)c3ccc(-n4cnnn4)cc3)CC2)c(C)c1 -3.8%, COc1ccc(-n2c(=O)c3c4c(sc3n(Cc3ccc(C(C)(C)C)cc3)c2=O)CCC4)c(OC)c1 -0.254%, CCn1nnc2cc(C(=O)Nc3ccc(OC)cc3)ccc21 9.8%, Cc1ccc(Cl)cc1N1CCN(C(=O)c2ccc3c(c2)N(Cc2ccccc2)CCS3)CC1 0.363%, COc1ccc(CCNC(=O)c2cc(=O)[nH]c3ccc(S(=O)(=O)N4CCCCC4C)cc23)cc1OC (stereo not drawn) -7.97%, Cc1cn2c(=O)cc(COC(=O)c3ccc(NC(=O)C(C)Oc4ccccc4)cc3)nc2s1 (stereo not drawn) 10.3%, CCOCCCNC(=O)c1c(NC(=O)c2nc(SC)ncc2Cl)sc2c1CCCC2 1.37%, Fc1ccc(Nc2c(-c3ccccn3)nc3ccc(Cl)cn23)cc1 -2.98%, O=C(Nc1cc(Cl)cc(Cl)c1)c1cc(S(=O)(=O)N2CCC3(CC2)OCCO3)ccc1F -10.1%, O=C(NCCc1ccccc1)c1nn(-c2ccccc2Cl)nc1CO -2.45%, COc1ccc(OC)c(NC(=O)CCNC(=O)Cn2cnc3ccccc3c2=O)c1 8.46%, CCOC(=O)c1c(N)n(-c2cc(C)cc(C)c2)c2nc3ccccc3nc12 7.59%, COc1cccc(NC(=O)Cc2csc(COc3cccc(C)c3)n2)c1 -2.11%, COCCn1c(C)cc(O)c(C(c2ccc(OC)cc2)N2CCN(c3ccccc3)CC2)c1=O (stereo not drawn) 6.23%, Cc1ccc(C)c(-n2nnc(C(=O)Nc3ccc(Br)cc3)c2C)c1 -0.43%, Cc1ccc(-n2ncc3c(Nc4cccc(C(F)(F)F)c4)ncnc32)cc1C 5.57%, Cc1cc2c(cc1S(=O)(=O)NCc1ccccc1Cl)OCC(=O)N2 -0.609%, COc1cccc(-c2nc(CS(=O)(=O)CC(=O)NCCc3ccc(Cl)cc3)c(C)o2)c1 1.74%, Cc1cc(C)cc(NC(=O)COCc2cc(-c3ccc4c(c3)OCO4)on2)c1 -4.28%, COc1cccc(N2CCN(C(=O)C3CCN(S(=O)(=O)c4cn(C)cn4)CC3)CC2)c1 15.8%, CCOCCn1c(=O)c2c(nc3n2CCN3c2ccc(C)c(C)c2)n(C)c1=O -1.74%, CC1CCCCN1C(=O)CSc1c2c(nc3cc(Cl)ccc13)CCCC2 (stereo not drawn) -21.5%, CC(C)c1ccc(NC(=O)c2cnc3sc(N4CCOCC4)nn3c2=O)cc1 3.22%, NS(=O)(=O)c1ccc(NC(=O)c2csnn2)cc1 0.671%, COc1ccc(OC)c(NC(=O)Cn2cnc3onc(-c4ccc(Cl)cc4)c3c2=O)c1 23.6%, COc1ccc(NC(=O)CN(C)S(=O)(=O)c2ccc3c(c2)c(=O)n(C)c(=O)n3C)cc1 -2.31%, COc1ccc(-c2nc3ccc(Cl)cn3c2Nc2ccc(C)cc2)cc1 6.34%, Cc1ccc(C(=O)NCC(c2ccco2)S(=O)(=O)c2ccc(Cl)cc2)cc1C (stereo not drawn) -5.8%, CCCCNC(=O)c1cn(C)c2ccc(S(=O)(=O)N3CCCC3)cc2c1=O -8.62%, COc1ccc(OCC2c3cc(OC)c(OC)cc3CCN2C(=O)c2c(F)cccc2F)cc1 (stereo not drawn) -3.77%, CCc1ccc(-n2nc(CO)c(C(=O)NCc3cccs3)n2)cc1 1.82%, Cc1ccc(NC(=O)CCn2c(=O)c3cccn3c3ccccc32)cc1Cl -7.59%, O=C(CSc1nc(=O)n(Cc2ccco2)c2c1CCC2)NCc1ccc(Cl)cc1 -6.61%, COc1cc(OC)c(NC(=O)Cn2cnc3sc(C)c(S(=O)(=O)N4CCC(C)CC4)c3c2=O)cc1Cl -13%, COc1ccc(N2CC(NC(=O)C(=O)c3c(C)[nH]c4ccccc34)CC2=O)cc1 (stereo not drawn) -0.0434%, Cc1cc(C)c2nc(N(Cc3cccnc3)C(=O)Cc3ccccc3)sc2c1 -0.218%, Cc1cc(C)n(-c2nc3ccccc3nc2Nc2cc(Cl)ccc2C)n1 2.09%, Cc1cc(NC(=O)Nc2nnc(N3CCCCC3)s2)ccc1Br -1.14%, Cc1ccc(C(=O)N2CCN(Cc3cc(=O)n4nc(-c5ccccc5)sc4n3)CC2)cc1 -5.11%, COc1ccccc1CNC(=O)CSc1nc(=O)[nH]c2c1CCCC2 -2.03%, CCN(Cc1ccccc1)C(=O)Cn1c(=O)n(-c2ccc(Cl)c(Cl)c2)c(=O)c2c(C)c(C(=O)N(C)C)sc21 -6.18%, COc1ccc(CCNC(=O)c2cc(=O)c3ccc(C)cc3o2)cc1OC -8.77%, CCCCCn1c(=O)[nH]c2cc(C(=O)NC(C)CC)ccc2c1=O (stereo not drawn) 0.279%, COCCn1c(=O)[nH]c2cc(C(=O)Nc3ccc(OC)cc3)ccc2c1=O -0.645%, COc1ccc(C(=O)Nc2ccc3oc(-c4cccnc4)nc3c2)cc1OC 5.56%, CCOc1ccc(CNC(=O)c2ccc3c(c2)nc2n3CCCCC2)cc1 5.58%, Cc1ccc2c(c1)cc(C(=O)NCc1ccccc1C)n2C 1.53%, CCc1cnc2c(c1SCC(=O)Nc1ccc(C(=O)OC)cc1)c(=O)n(C)c(=O)n2C 0.363%, CC(C)Oc1ccc(CNC(=O)C2CCN(Cc3cc4ccccc4n3Cc3ccccc3)CC2)cc1 -6.6%, CC(C)(C)c1ccc(OCCOCCn2c(-c3ccc(Cl)cc3)nc3ccccc3c2=O)cc1 -0.0361%, CCn1c2ccccc2c2cc(NC(=O)COc3cc(C)ccc3C)ccc21 7.42%, Cc1cccc(Cn2c(COc3ccccc3)nc3ccccc32)c1 -18.4%, O=C(/C=C/c1ccccc1)Nc1nc2n(n1)C(c1ccc(F)cc1)C=C(c1ccccc1)N2 (stereo not drawn) -2.41%, CC(C)Oc1ccc(CNC(=O)c2ccc(NC(=O)N3CC(C)Sc4ccccc43)cc2)cc1 (stereo not drawn) -6.34%, CC1CCc2onc(C(=O)N3CCN(c4cccc(Cl)c4)CC3)c2C1 (stereo not drawn) 5.14%, CCOC(=O)CNC(=O)c1cc2c(=O)n3cccc(C)c3nc2n1C -16.3%, CCc1nn2c(=O)c(S(=O)(=O)Nc3ccc(C)c(C)c3)c(C)nc2s1 3.64%, CCc1cccc(C)c1NC(=O)c1cnn(-c2ccc(OC)cc2)c1C1CCN(C(=O)OC(C)(C)C)CC1 -6.04%, COc1ccc(NC(=O)c2nc(-c3ccc(C)cc3)n3c2CCCCC3)c(OC)c1 9.45%, CCOCCc1nn2c(=O)cc(COC(=O)c3ccc(NC(=O)C(C)(C)C)cc3)nc2s1 3.98%, Cc1cc2oc(C(=O)N(Cc3ccco3)Cc3ccccc3Cl)c(C)c2cc1C -5.69%, CCOC(=O)c1ccccc1NC(=O)c1cnc(N2CCOCC2)c2ccccc12 -2.59%, Cc1ccc(SCC(=O)Nc2ccc3oc(-c4ccccc4F)nc3c2)cc1 -2.59%, COc1ccc(N2CC(NC(=O)/C=C\c3ccccc3)CC2=O)cc1OC (stereo not drawn) 0.749%, Cc1nn(C)c(C)c1CCNC(=O)Nc1ccccc1C(F)(F)F 0%, CCN(CC)c1nn2c(=O)c(C(=O)NCc3ccc(N(C)C)cc3)cnc2s1 0%, COc1ccc(CNC(=O)Cn2c(-c3ccccc3)cc(C(C)=O)c2C)cc1OC 0.468%, CN(Cc1ccco1)S(=O)(=O)c1nnc(NC(=O)c2ccccc2Cl)s1 -4.26%, CCC(=O)N1CCc2cc(S(=O)(=O)NC(C(=O)NCCc3cccc(C)c3)C(C)C)ccc21 (stereo not drawn) -0.773%, O=C(NCc1cccs1)c1ccc(CSc2nc3ccncc3n2Cc2ccccc2F)cc1 -1.38%, COc1ccc(C(=O)CCC(=O)Nc2ccc(C)c(Cl)c2)cc1 0.441%, COc1cc(Cl)c(C)cc1Nc1nc2ccccc2n2cnnc12 -1.31%, COc1ccccc1CNC(=O)C1CCN(S(=O)(=O)c2cn(C)cn2)CC1 0%, O=C(NCCc1csc(-c2ccc(F)cc2)n1)c1cccc(F)c1 -0.817%, Cc1ccc(C2c3[nH]c4ccccc4c3CCN2C(=O)CSCc2ccc(F)cc2)cc1 (stereo not drawn) 4.93%, CCc1ccccc1N(C)C(=O)c1sc2nc3n(c(=O)c2c1C)CCCCC3 -1.26%, O=C(Nc1ccccc1-c1nc2ccccc2s1)c1ccc(F)cc1 0.519%, Clc1ccc(-c2cc3ncc4c(n3n2)-c2ccccc2OC4)cc1 3.66%, COc1ccc(CCNc2nc3c(-c4cccc(C(F)(F)F)c4)nnn3c3ccccc23)cc1OC -8.46%, Cc1ccc(CN2CCCn3nc(C(=O)NCc4ccc(N(C)C)cc4)cc3C2=O)cc1 22.8%, CC1CCN(c2nc(-c3ccc(C(C)(C)C)cc3)nc3ccccc23)CC1 4.06%
